In all, about 81,000 sequences were measured (“one-hybrid fitness for binding NBS DNA”: median about -0.1, highest 2% from about 0.36 on). The list shows a part of the results.
B1: Caulobacter ParB omega fusion; a variant is named by its letters at X, in order, B8GW30 (parent)
chain: MESVVVGEPGMSEGRRGLGRGLSALLGEVDAAPAQAPGEQLGGSREAPIEILQRNPDQPRRTFREEDLEDLSNSIREKGVLQPILVRPSPDTAGEYQIVAGERAWRAAQRAGLKTVPIMVRELDDLAVLEIGIIENVQRADLNVLEEALSYKVLMEKFERTQENIAQTIGKSXSHVANXMRLLXLPDEVQSYLVSGELTAXHARAIAAAADPVALAKQIIEGGLSVRETEALARKAPNLSAGKSKGGRPPRVKDTDTQALESDLSSVLGLDVSIDHRGSTGTLTITYATLEQLDDLCNRLTRGI

Variants of: B1
Experiment: one-hybrid fitness for binding NBS DNA (the Noc-binding site; scaled: cognate 1, non-cognate 0); higher = stronger binding
Details: with NBS DNA site
In short: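 Fitness is the rescaled log change in variant-to-wild-type read ratio, measured by Illumina sequencing of plasmids before and after bacterial one-hybrid selection. The scale puts cognate at 1 and non-cognate at 0. Selection of Caulobacter ParB libraries, four specificity codons randomised, took place in E. coli USO with a HIS3 reporter, site 19 bp from the promoter, over 48 hours at 37°C on M9-minus-histidine with 0.1 mM IPTG and 5 mM 3-AT.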

Point of comparison: QACT, “one-hybrid fitness for binding NBS DNA” value 0.363. Against it:
- NVHE — lower, ≤ 0.2
- YCHI — lower, ≤ 0.2
- NLDF — lower, ≤ 0.2
- PIQT — lower, ≤ 0.2
- SYNF — lower, ≤ 0.2
- AYMG — lower, ≤ 0.2
- SSGY — lower, ≤ 0.2
- QMNG — lower, ≤ 0.2
- HWLS — lower, ≤ 0.2
- HSEM — lower, ≤ 0.2
- DSAP — lower, ≤ 0.2
- MSES — lower, ≤ 0.2
- DTTP — lower, ≤ 0.2
- QRKL — higher, 0.367
- ITQS — lower, ≤ 0.2
- LPRG — lower, ≤ 0.2
- QTEF — lower, ≤ 0.2
- LQAK — lower, ≤ 0.2
- EHKE — lower, ≤ 0.2
- CARI — lower, ≤ 0.2
- QRVL — lower, ≤ 0.2
- QAKC — lower, 0.349
- CMFS — lower, ≤ 0.2
- SQPT — lower, ≤ 0.2
- RCSY — lower, ≤ 0.2
- SQCV — lower, ≤ 0.2
- DKMG — lower, ≤ 0.2
- DKLR — lower, ≤ 0.2
- AMMR — lower, ≤ 0.2
- YFYS — lower, ≤ 0.2
- WPPR — lower, ≤ 0.2
- WKLR — lower, ≤ 0.2
- CAAW — lower, ≤ 0.2
- PMQR — lower, ≤ 0.2
- RCLK — lower, ≤ 0.2
- DTQG — lower, ≤ 0.2
- TQGT — lower, ≤ 0.2
- RHSL — lower, ≤ 0.2
- TEQA — lower, ≤ 0.2
- SAYC — lower, ≤ 0.2
- INWI — lower, ≤ 0.2
- YVHD — lower, ≤ 0.2
- SFML — lower, ≤ 0.2
- HTGN — lower, ≤ 0.2
- KTFR — lower, ≤ 0.2
- KHVC — lower, ≤ 0.2
- QHGA — lower, 0.208
- ERVR — lower, ≤ 0.2
- NERC — lower, ≤ 0.2
- ATVD — lower, ≤ 0.2
- HQSA — lower, ≤ 0.2
- GRQG — lower, ≤ 0.2
- RQPA — lower, ≤ 0.2
- GPTH — lower, ≤ 0.2
- GWYS — lower, ≤ 0.2
- YKKF — lower, ≤ 0.2
- SFRF — lower, ≤ 0.2
- VIML — lower, ≤ 0.2
- PINF — lower, ≤ 0.2
- TWTY — lower, ≤ 0.2
- LGAS — lower, ≤ 0.2
- DAEV — lower, ≤ 0.2
- AATN — lower, ≤ 0.2
- NFPR — lower, ≤ 0.2
- RTGV — lower, ≤ 0.2
- QWVI — lower, ≤ 0.2
- DEGR — lower, ≤ 0.2
- WMPH — lower, ≤ 0.2
- PEHL — lower, ≤ 0.2
- KEDR — lower, ≤ 0.2
- NAMR — lower, ≤ 0.2
- SKPR — lower, ≤ 0.2
- CPAD — lower, ≤ 0.2
- MGEF — lower, ≤ 0.2
- WANF — lower, ≤ 0.2
- YKEK — lower, ≤ 0.2
- FDLG — lower, ≤ 0.2
- NPHY — lower, ≤ 0.2
- QEDE — lower, ≤ 0.2
- PGTG — lower, ≤ 0.2
- QYSP — lower, ≤ 0.2
- AGWR — lower, ≤ 0.2
- AAAI — lower, ≤ 0.2
- RFDT — lower, ≤ 0.2
- PACG — lower, ≤ 0.2
- MMTF — lower, ≤ 0.2
- RVMS — lower, 0.255
- MQGT — lower, ≤ 0.2
- QGKC — lower, ≤ 0.2
- QSVK — lower, ≤ 0.2
- RGRS — lower, 0.311
- HQPM — lower, ≤ 0.2
- FYAL — lower, ≤ 0.2
- SDLL — lower, ≤ 0.2
- PYKG — lower, ≤ 0.2
- RNCT — lower, ≤ 0.2
- DGTC — lower, ≤ 0.2
- TLGD — lower, ≤ 0.2
- GGRL — lower, ≤ 0.2
- AYAC — lower, ≤ 0.2
- QVNV — lower, ≤ 0.2
- GMSC — lower, ≤ 0.2
- TWYF — lower, ≤ 0.2
- QTHN — lower, 0.297
- HPFG — lower, ≤ 0.2
- WTDK — lower, ≤ 0.2
- RCEP — lower, ≤ 0.2
- SVVV — lower, ≤ 0.2
- TLIL — lower, ≤ 0.2
- THRP — lower, ≤ 0.2
- KTKA — lower, ≤ 0.2
- HPLY — lower, ≤ 0.2
- HSNS — lower, ≤ 0.2
- GVCS — lower, 0.297
- TMLK — lower, ≤ 0.2
- GHKA — lower, ≤ 0.2
- YEPM — lower, ≤ 0.2
- AKHY — lower, ≤ 0.2
- QSYY — lower, ≤ 0.2
- LMMS — lower, ≤ 0.2
- HVRK — lower, ≤ 0.2
- WITR — lower, ≤ 0.2
- QDHV — lower, ≤ 0.2
- CPAE — lower, ≤ 0.2
- LMEF — lower, ≤ 0.2
- RLTG — lower, ≤ 0.2
- QFKL — lower, ≤ 0.2
- YTFA — lower, ≤ 0.2
- PNSG — lower, ≤ 0.2
- PPAT — lower, ≤ 0.2
- NCAA — lower, ≤ 0.2
- RLFI — lower, ≤ 0.2
- WHYG — lower, ≤ 0.2
- LFPR — lower, ≤ 0.2
- SRPK — lower, ≤ 0.2
- VHAL — lower, ≤ 0.2
- PMPC — lower, ≤ 0.2
- ELML — lower, ≤ 0.2
- TGLD — lower, ≤ 0.2
- QFGC — lower, ≤ 0.2
- SRKG — lower, ≤ 0.2
- THCC — lower, ≤ 0.2
- CGSC — lower, ≤ 0.2
- RAVM — lower, ≤ 0.2
- MLQG — lower, ≤ 0.2
- GRKT — lower, ≤ 0.2
- PESS — lower, ≤ 0.2
- WRNA — lower, ≤ 0.2
- DCVG — lower, ≤ 0.2
- QKLL — lower, ≤ 0.2
- RNIF — lower, ≤ 0.2
- LRLR — lower, ≤ 0.2
- RRWE — lower, ≤ 0.2
- CTMC — lower, ≤ 0.2
- TPVR — higher, 0.513
- KFPV — lower, ≤ 0.2
- KSRA — lower, ≤ 0.2
- NEYN — lower, ≤ 0.2
- RIFG — lower, ≤ 0.2
- QLQF — lower, ≤ 0.2
- PTFC — lower, ≤ 0.2
- LHPS — lower, ≤ 0.2
- VGPT — lower, ≤ 0.2
- SSQM — lower, ≤ 0.2
- SKDI — lower, ≤ 0.2
- QWRY — lower, ≤ 0.2
- DTHF — lower, ≤ 0.2
- TVKG — lower, ≤ 0.2
- PRWA — lower, ≤ 0.2
- KQGK — lower, ≤ 0.2
- RDDY — lower, ≤ 0.2
- YTAN — lower, ≤ 0.2
- NPYL — lower, ≤ 0.2
- YDNA — lower, ≤ 0.2
- KYVI — lower, ≤ 0.2
- LSSM — lower, ≤ 0.2
- QCDR — higher, 0.402
- RCRV — lower, 0.257
- MSGS — lower, ≤ 0.2
- RCNG — lower, ≤ 0.2
- AMRR — lower, ≤ 0.2
- VNVS — lower, ≤ 0.2
- RWMP — lower, ≤ 0.2
- ATKK — lower, ≤ 0.2
- PASE — lower, ≤ 0.2
- TIIS — lower, ≤ 0.2
- QKKA — higher, 0.577
- RFVP — lower, ≤ 0.2
- YAMK — lower, ≤ 0.2
- QMNR — higher, 0.637
- VLVT — lower, ≤ 0.2
- RCDD — lower, ≤ 0.2
- PQAM — lower, ≤ 0.2
- EFSG — lower, ≤ 0.2

Reference: a collection of fitness landscapes (doi:10.1016/j.celrep.2020.107928)
